The campaign covered roughly 3,200 compounds. About 300 (9.4%) showed activity. Only a part is listed here, and it is no random draw.
Test system: A673/TR/shEF
Assay: cell viability (LOESS-normalised, relative to median of negative controls) (log2 ratio); higher = more viable cells (less compound effect), active = hit call of the paper (over 3 MAD below the median)
Details: treatment time: 72 h
Method in brief: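 For three days, A673/TR/shEF Ewing sarcoma cells in 384-well plates (1,500 per well) were treated with library compounds at two or more concentrations or with DMSO controls, after doxycycline had been added or withheld 24 h beforehand to induce EWS-FLI1 shRNA knockdown. Viability was read by CellTiter-Glo luminescence on an Envision reader. The data were LOESS-corrected per plate, divided by the median of negative controls and log2-transformed.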

[1] = 0.25 µM, library screen: screen2, EWS-FLI1 expression: high (no doxycycline)
[2] = 0.25 µM, library screen: screen2, EWS-FLI1 expression: low (doxycycline-induced shRNA knockdown)
[3] = 2.5 µM, library screen: screen2, EWS-FLI1 expression: high (no doxycycline)
[4] = 2.5 µM, library screen: screen2, EWS-FLI1 expression: low (doxycycline-induced shRNA knockdown)
[5] = 0.25 µM, library screen: screen1, EWS-FLI1 expression: high (no doxycycline)
[6] = 0.25 µM, library screen: screen1, EWS-FLI1 expression: low (doxycycline-induced shRNA knockdown)
[7] = 2.5 µM, library screen: screen1, EWS-FLI1 expression: high (no doxycycline)
[8] = 2.5 µM, library screen: screen1, EWS-FLI1 expression: low (doxycycline-induced shRNA knockdown)
[9] = 0.103 µM, library screen: screen3, EWS-FLI1 expression: high (no doxycycline)
[10] = 0.103 µM, library screen: screen3, EWS-FLI1 expression: low (doxycycline-induced shRNA knockdown)
[11] = 0.308 µM, library screen: screen3, EWS-FLI1 expression: high (no doxycycline)
[12] = 0.308 µM, library screen: screen3, EWS-FLI1 expression: low (doxycycline-induced shRNA knockdown)
[13] = 0.926 µM, library screen: screen3, EWS-FLI1 expression: high (no doxycycline)
[14] = 0.926 µM, library screen: screen3, EWS-FLI1 expression: low (doxycycline-induced shRNA knockdown)
[15] = 2.8 µM, library screen: screen3, EWS-FLI1 expression: high (no doxycycline)
[16] = 2.8 µM, library screen: screen3, EWS-FLI1 expression: low (doxycycline-induced shRNA knockdown)
[17] = 8.3 µM, library screen: screen3, EWS-FLI1 expression: high (no doxycycline)
[18] = 8.3 µM, library screen: screen3, EWS-FLI1 expression: low (doxycycline-induced shRNA knockdown)
[19] = 25 µM, library screen: screen3, EWS-FLI1 expression: high (no doxycycline)
[20] = 25 µM, library screen: screen3, EWS-FLI1 expression: low (doxycycline-induced shRNA knockdown)

Measured: cell viability (log2)

NCC(O)C1CCCCCCC1 (stereo not drawn)
inactive: [1] 0.139 | [2] 0.0677 | [3] 0.0584 | [4] 0.14

CN1CCC(=C2c3ccccc3C=Cc3ccccc32)CC1
inactive: [1] 0.203 | [2] 0.115 | [3] 0.0726 | [4] -0.0154

CCCNC[C@H](O)COc1ccccc1C(=O)CCc1ccccc1
inactive: [1] 0.255 | [2] 0.136 | [3] 0.217 | [4] 0.0281

C(#CC12CC3CC(CC(C3)C1)C2)CN1CCOCC1
inactive: [5] 0.0887 | [6] 0.0273 | [7] 0.163 | [8] 0.0455

CCn1c(=O)c2[nH]c(-c3ccccc3)nc2n(CC)c1=O
inactive: [1] 0.325 | [2] 0.0702 | [3] 0.169 | [4] 0.0945

N#Cc1c(-c2ccccc2)no[n+]1[O-]
inactive: [1] 0.0776 | [2] 0.12 | [3] 0.0573 | [4] 0.147

C[C@H]1O[C@H](O[C@H]2[C@H](O)[C@@H](O)[C@@H](O[C@H]3[C@H](O)[C@@H](O)C(O)O[C@@H]3CO)O[C@@H]2CO)[C@H](O)[C@@H](O)[C@@H]1N[C@H]1C=C(CO)[C@@H](O)[C@H](O)[C@H]1O (stereo partly drawn)
inactive: [9] 0.0722 | [10] 0.0864 | [11] 0.0913 | [12] 0.114 | [13] 0.112 | [14] 0.0769 | [15] 0.0866 | [16] 0.0489 | [17] 0.0887 | [18] 0.0595 | [19] 0.12 | [20] 0.0697

CC(C)(C=O)Cc1cc(C(C)(C)C)c(O)c(C(C)(C)C)c1
inactive: [1] 0.149 | [2] 0.153 | [3] 0.105 | [4] 0.142

CN1CCN(CC/C=C2/c3ccccc3Sc3ccc(S(=O)(=O)N(C)C)cc32)CC1
inactive: [5] 0.106 | [6] 0.00591 | [1] 0.173 | [2] 0.165 | [7] 0.0792 | [8] 0.15 | [3] 0.161 | [4] -0.0129

NC(N)=NS(=O)(=O)c1ccc(N)cc1
inactive: [5] 0.0966 | [6] 0.0507 | [7] 0.189 | [8] 0.133

COc1c(-c2coc3cc4c(cc3c2=O)CC(O)C(C)(C)O4)ccc2c1C=CC(C)(C)O2 (stereo not drawn)
inactive: [5] 0.0473 | [6] 0.0244 | [7] 3e-05 | [8] 0.094

OCCN1CCN(CC/C=C2/c3ccccc3Sc3ccc(C(F)(F)F)cc32)CC1
inactive: [1] 0.14 | [2] 0.0648 | [3] 0.179 | [4] 0.072

OC[C@H]1O[C@@H](n2cnc3c(NCCc4ccccc4)ncnc32)C(O)[C@H]1O (stereo partly drawn)
inactive: [1] 0.15 | [2] 0.163 | [3] 0.0914 | [4] 0.0608

N#Cc1c(-c2ccc(Br)cc2)cc(-c2ccc3c(c2)OCO3)c(C#N)c1N
inactive: [5] 0.0622 | [6] 0.109 | [7] 0.154 | [8] 0.0524

Cc1cn[nH]c1
inactive: [1] 0.0608 | [2] 0.0728 | [3] 0.0815 | [4] 0.0769

CC12CCC3c4ccc(OC(=O)c5ccccc5)cc4CCC3C1CCC2=O (stereo not drawn)
inactive: [5] -0.000312 | [6] 0.0356 | [7] 0.0819 | [8] 0.000425

OC(Cn1cncn1)(Cn1cncn1)c1ccc(F)cc1F
inactive: [9] 0.0788 | [10] 0.0993 | [5] 0.166 | [6] 0.00845 | [11] 0.2 | [12] 0.0904 | [13] 0.146 | [14] 0.0591 | [7] 0.096 | [8] -0.00416 | [15] 0.155 | [16] 0.0396 | [17] 0.104 | [18] 0.0872 | [19] 0.181 | [20] 0.111

C[C@@H](NCCCc1cccc(C(F)(F)F)c1)c1cccc2ccccc12
inactive: [9] 0.085 | [10] 0.0699 | [11] 0.0937 | [12] 0.0681 | [13] 0.0751 | [14] 0.0865 | [15] 0.0584 | [16] 0.0742 | [17] 0.0429 | [18] 0.0305 | [19] -0.0605 | [20] 0.00123

CC(=O)[C@@]1(O)CC[C@H]2[C@@H]3C=C(Cl)C4=CC(=O)[C@@H]5C[C@@H]5[C@]4(C)[C@H]3CC[C@@]21C
inactive: [5] 0.125 | [6] 0.0388 | [7] 0.131 | [8] -0.0197

CC[N+](C)(C)c1cccc(O)c1
inactive: [5] 0.144 | [6] 0.0309 | [1] 0.0704 | [2] 0.0832 | [7] 0.0778 | [8] 0.0123 | [3] 0.12 | [4] 0.118

NS(=O)(=O)c1cc(C2(O)NC(=O)c3ccccc32)ccc1Cl (stereo not drawn)
inactive: [5] 0.102 | [6] 0.0805 | [7] 0.216 | [8] 0.268

COc1ccc(-c2cc(=O)c3c(O)c(OC)c(OC)cc3o2)cc1O
active: [7] -0.654

CCCCCCCCCCCCCCCC(=O)OC/C=C(C)/C=C/C=C(C)/C=C/C1=C(C)CCCC1(C)C
inactive: [5] 0.183 | [6] 0.0654 | [7] 0.188 | [8] 0.0897

C=CC(N)CCC(=O)O (stereo not drawn)
inactive: [5] 0.0253 | [6] -0.041 | [1] 0.0784 | [2] 0.0772 | [7] 0.0496 | [8] 0.0738 | [3] 0.141 | [4] 0.0589

CC(=O)OCC(=O)[C@@]1(O)CC[C@H]2[C@@H]3CCC4=CC(=O)CC[C@]4(C)[C@H]3[C@@H](O)C[C@@]21C
inactive: [5] 0.0589 | [6] -0.00319 | [7] 0.113 | [8] -0.145

CC(C)c1c(C(=O)Nc2ccccc2)c(-c2ccccc2)c(-c2ccc(F)cc2)n1CC[C@@H](O)C[C@@H](O)CC(=O)O
inactive: [5] 0.091 | [6] 0.0242 | [7] 0.147 | [8] -0.0132

Cc1ccc(C(=O)NCCSc2ccccn2)cc1
inactive: [5] 0.109 | [6] 0.00816 | [7] 0.117 | [8] -0.0564

CCCCN(CCCC)CCCOC(=O)c1ccc(N)cc1
inactive: [5] 0.0783 | [6] 0.0927 | [7] 0.106 | [8] -0.00308

Cc1ccc(C(=O)c2ccc(CC(=O)O)n2C)cc1
inactive: [5] 0.104 | [6] 0.125 | [7] 0.166 | [8] 0.245

O=C(O)CN1C(=O)c2cccc3cccc(c23)C1=O
inactive: [5] 0.105 | [6] 0.11 | [7] 0.117 | [8] 0.138

CC(=O)OCC(=O)[C@@]1(O)CC[C@H]2[C@@H]3CCC4=CC(=O)CC[C@]4(C)[C@@]3(F)[C@@H](O)C[C@@]21C
inactive: [5] 0.0516 | [6] -0.128 | [7] 0.181 | [8] -0.216

O=C(O)CCCCCCCC(=O)O
active: [1] -0.13
inactive: [5] 0.000753 | [6] 0.0938 | [2] 0.0952 | [7] 0.149 | [8] 0.152 | [3] 0.0755 | [4] 0.0904

CC12CCC3C(CC3(C)C)C(C)(CCC1=O)O2 (stereo not drawn)
inactive: [5] 0.0597 | [6] -0.06 | [7] 0.125 | [8] 0.0256

CC(C)c1cc(/C=C(\C#N)C(=O)NCCCc2ccccc2)cc(C(C)C)c1O
active: [7] -0.147 | 25 µM, library screen: screen1, EWS-FLI1 expression: high (no doxycycline) -0.351

CC1(C)CCC(NC(=O)[C@@H](N)CCC(=O)O)CC1
inactive: [1] 0.0918 | [2] 0.112 | [3] 0.151 | [4] 0.102

O=C(O)C1CCNCC1
inactive: [1] 0.0886 | [2] 0.119 | [3] 0.109 | [4] 0.143

CCn1cc(C(=O)O)c(=O)c2cc(F)c(N3CCNCC3)nc21
inactive: [5] 0.0868 | [6] 0.172 | [7] 0.0894 | [8] 0.207

CC1(C)CCC=[N+]1[O-]
inactive: [1] 0.21 | [2] 0.0951 | [3] 0.15 | [4] 0.0623

CC(C(=O)O)c1cccc(Oc2ccccc2)c1 (stereo not drawn)
inactive: [9] 0.0391 | [10] 0.0624 | [5] 0.0482 | [6] -0.0414 | [11] 0.0175 | [12] 0.00626 | [13] -0.0113 | [14] 0.0467 | [7] 0.0813 | [8] 0.0314 | [15] -0.0127 | [16] 0.00407 | [17] -0.00977 | [18] 0.021 | [19] 0.017 | [20] -0.0553

COc1ccccc1C=CC(=O)O
inactive: [5] 0.0113 | [6] -0.0457 | [7] 0.102 | [8] 0.0515

Oc1ccc(C2CNCCc3c2cc(O)c(O)c3Cl)cc1 (stereo not drawn)
inactive: [1] 0.0664 | [2] 0.116 | [3] 0.116 | [4] 0.122

COc1ccccc1-c1coc2cc(O)ccc2c1=O
inactive: [5] 0.111 | [6] 0.0685 | [7] 0.111 | [8] -0.0147

O=C1OC(c2ccc(O)cc2)(c2ccc(O)cc2)c2ccccc21
inactive: [5] 0.134 | [6] -0.0327 | [7] 0.253 | [8] 0.217

Reference: the supplement of paper PMC6089552
